Read counts are not given, so values of variants with three or more changes are uncertain.

B1: LINE1-mini (parent)
chain: GGCAGAGCUCAACACAGCGUGGCAAAGUGGCUGUGGCUAGACUGCC

The data set covers variants of B1. Nature of the data set: self-cleavage, relative activity (ratio to wild type); higher = more cleavage; in vitro, sequencing; the parent is a self-cleaving ribozyme.
For the variant GGCAGAGCUAGAGACAUCGUGGCAUAGUGGCUGUGGCUAGAGUGCC [C10A A11G C13G G17U A25U C42G], the self-cleavage was 0.02.
As to GGCAGAGCUAAACACGGCGUGGCAAAGUGGCUGUCGCUAGACUGCC [C10A A16G G35C], the self-cleavage is 0.04.
With GGCAGAGCGCAACACAGCGUGGCAAAGUGGCUGCGUCUAGUGAGCC [U9G U34C G36U A41U C42G U43A] the figure was 0.03; with GGCAGAGCUAAACCCAGCGGGGCAAAGUGGCUGUGGCUCGACUGCC [C10A A14C U20G A39C], 0; with GGCAGAGCUAAGCACAGCGUGUCAAAAGGGCUGUGGUUAGACUGCC [C10A A12G G22U G27A U28G C37U], 0.01.
In the case of GGCAGAGCUAAACACAGCGUGGCAGAGUGACUGUGGCUAGACUGCC [C10A A25G G30A], the self-cleavage is 0.06.
With GGCAGAGCGCAACACAGCGCGGAAAAGUGGCUGUGGCUAGACUGCC [U9G U20C C23A] the figure was 0.03; with GGCAGAGCGCAACACAGCGCGGUAAAGUGGCUGUGGCUAGACUGCC [U9G U20C C23U], 0.07.
GGCAGAGCUAAAAACAGCGUGGCAAAGUGGAUGUGGCUAGACUGCA [C10A C13A C31A C46A]: the self-cleavage worked out at 0.02.
With GGCAGAGCUAAACCCAGCGUAGCAAAGUGGCUGUGGCUAGACUGCC [C10A A14C G21A] the figure was 0.03.
Consider GGCAGAGCUAAACACAGCGUGGCAGAAUGGCUGCGGCUAGACUGCC [C10A A25G G27A U34C], for which the self-cleavage was 0.02.
GGCAGAGCUAAACACAGCGUGGCAUAGUGGCUGUAGCUAGACUGCC [C10A A25U G35A]: the self-cleavage is 0.03.
To GGCAGAGCUAAACACUGCGUGGCAAAGUGGCUGUGGCGAGACCGCC [C10A A16U U38G U43C] belongs 0.02; to GGCAGAGCUAAGCACCGCGUGGCAAAGUGGCUAUGGCCAGACUGCC [C10A A12G A16C G33A U38C], 0.01.
GGCAGAGCUAAACACGGCGUGUCAAAGUGGCUGUGGUUAGACUGCC [C10A A16G G22U C37U]: the self-cleavage was found to be 0.02.
Take GGCAGAGCUAAAAACAUCGUGGCAAAGUGGCUGUGGCUAGACUGCA [C10A C13A G17U C46A]: the self-cleavage was 0.04.
To GGCAGAGCUAAACACAGCGUGGCAAUGUGGCUGUGGCGAGACUGCC [C10A A26U U38G] belongs 0.14; to GGCAGAGCUAAACACAGCGUGGCAAUGUUGCUGUGGCUACACUGCC [C10A A26U G29U G40C], 0.05.
In the case of GGCAGAGCUAAACACAGCGUGGCAAUGUGGCUGUGGCUAGACUACC [C10A A26U G44A], the self-cleavage turned out to be 0.04.
To GGCAGAGCUAAACUCAGCGUGGCAACGUGGCUGUGGUUAGACUGCC [C10A A14U A26C C37U] belongs 0.01; to GGCAGAGCUAGACACAGCGUGGCAAAGUGGCUGUGUUUAGACUGCC [C10A A11G G36U C37U], 0.02; to GGCAGAGCUAAACACAGCGUGGCAAAGUGGCUGUGGCUCGACUGCA [C10A A39C C46A], 0.
To GGCAGAGCUAAACACAGCGUGGCAAAGUGGCUGUGGCUCGACUGCU [C10A A39C C46U] belongs 0.08; to GGCAGAGCGCAACACAGCGUGGCAAAGUGGCUAUGUCCAGACUGCC [U9G G33A G36U U38C], 0.06.
To GGCAGAGCUAAACCCAGCGUGGCAAAGUGGCUGAGGCUAGACCGCC [C10A A14C U34A U43C] belongs 0.02; to GGCAGAGCUACACACAGCGUGGCAAAGUGGCUGUGGAAUGACAGCC [C10A A11C C37A U38A A39U U43A], 0.01; to GGCAGAGCGCAACACAGCGUGGCAAAGAUGCUGUGGCUAGACUGCC [U9G U28A G29U], 0.04.
Turning to GGCAGAGCGCAACACAGCGUGGCAAAGGGCCUGUGGCUAGACUGCC [U9G U28G G30C], the self-cleavage was 0.08.
To GGCAGAGCUAGACACAGCGUGGCAAAGUGGCUGUGGCUAAACUGCC [C10A A11G G40A] belongs 0.02; to GGCAGAGCUAAUCACAGCGUGGCAAAGUGGCUGUGGGUAGACUGCC [C10A A12U C37G], 0.01.
To GGCAGAGCUACGCUCAGCGUGGUAAAGUGGCUGUGGCUAGACUGCC [C10A A11C A12G A14U C23U] belongs 0.01; to GGCAGAGCUAAACACCGCGUGCCAAAGUGGCUGUGGCUAGACUGCA [C10A A16C G22C C46A], 0.02; to GGCAGAGCUAACCACUGCCUGGCAAAGUUGCUGUGGCCAUACUGCC [C10A A12C A16U G19C G29U U38C G40U], 0.02.
With GGCAGAGCUAAACACGGUGUGGCAAAGUGGCUGUGGCUAGACUGAC [C10A A16G C18U C45A] the figure was 0.03.
Take GGCAGAGCUACACACACCGUGGCAAAGUGGCUGUGGCUAUACUACC [C10A A11C G17C G40U G44A]: the self-cleavage amounted to 0.01.
As for GGCAGAGCUAGACUCAGCGUGGCAAGGUGGCUGUGGCUAGACUGCC [C10A A11G A14U A26G], the self-cleavage is 0.03.
Take GGCAGAGCUAGACACAGCGUGGCAAAGUGGCUGUGGCUAGGCUGCC [C10A A11G A41G]: the self-cleavage was 0.03.
GGCAGAGCUAAACUCAGCGUGGCAAAGUGGCUGUGGCUAGUCUGCC [C10A A14U A41U]: the self-cleavage was 0.02.
On to GGCAGAGCUAACCACAGCGGUGCAAAGUGGCUGUGGCUUGACUUCC [C10A A12C U20G G21U A39U G44U], for which the self-cleavage was determined as 0.
Take GGCAGAGCGCAACACAGCGAGGCUAAGUGGCUGUGUCUAGACUGCC [U9G U20A A24U G36U]: the self-cleavage turned out to be 0.
To GGCAGAGCUAAACGCAGCGUGGCAAAGUGGCUGUGGCUAGACUGCA [C10A A14G C46A] belongs 0.03.
To GGCAGAGCGCAACACAGCGUGGCAAAGUGGCUGUCGCUAGACUGCU [U9G G35C C46U] belongs 0.02; to GGCAGAGCUAACCAGAGCGUGGCCAAGUGGCUGUGGCUAGACUGCC [C10A A12C C15G A24C], 0.01.
To GGCAGAGCGCAACACAGCGUGGCAAAAUGGCAAUGCCUAGACUGCC [U9G G27A U32A G33A G36C] belongs 0.01; to GGCAGAGCGCAACACAGCGUGGCAAAGUGGCUGUUGUUAGACUGCC [U9G G35U C37U], 0.15; to GGCAGAGCGCAACACAGCGUGGCAAAGUGCCUGUGGCUAGACUGAC [U9G G30C C45A], 0.05.
In the case of GGCAGAGCUAAACACAGCGUGGCUAAGUGGCUGUGGCUAGAGUGUC [C10A A24U C42G C45U], the self-cleavage stood at 0.
To GGCAGAGCUAAUCACAGCGUGGCAAAGUGCCUGUGGCUAGAAUGCC [C10A A12U G30C C42A] belongs 0.01; to GGCAGAGCUAGGAACAGCGUGGCAAAGUGGCUGUGGCUAGACUGCC [C10A A11G A12G C13A], 0.01.
On to GGCAGAGCUAAGCACAGCGUGGCAAAGUUGCUGUGGCUAGCCUGCC [C10A A12G G29U A41C], for which the self-cleavage was 0.01.
To GGCAGAGCUAAACACAGCGUGGCGAUGUGGCUGUGGCUAGUCUGCC [C10A A24G A26U A41U] belongs 0.04; to GGCAGAGCGCAACACAGCGUGUCAAAGUGGCUGUGCCUAUACUGCC [U9G G22U G36C G40U], 0.13; to GGCAGAGCUACACACAGCGUGACAAAGUGGCUGUGGCUAGACUGCC [C10A A11C G22A], 0.03.
With GGCAGAGCUAAACACGGCGUGGCAAAGUGGCUGAGCCUUGACUGAC [C10A A16G U34A G36C A39U C45A] the figure was 0.01.
As for GGCAGAGCUAAACCCAGAGUGGCAAAGUGGCUGUGCCUUGACUGCC [C10A A14C C18A G36C A39U], the self-cleavage turned out to be 0.01.
With GGCAGAGCUAAACACAGCGUGGCUAAGUUGCAGUGGCUAGACUGCC [C10A A24U G29U U32A] the figure was 0.02.

Source of the values: the RNAGym collection of RNA variant scans (doi:10.7554/elife.90254).
